{"source": "the supplement of paper PMC8728848", "experiment_in_all_cases": "glycan array binding signal (z-score within array); higher = stronger binding", "conditions_in_all_cases": "glycan notation: IUPAC condensed, linker removed", "key": {"[1]": {"target": "Gal(b1-4)GlcNAc(b1-2)Man(a1-6)[Man(a1-3)]Man(b1-4)GlcNAc(b1-4)GlcNAc", "procedure,_shortened": "(§1)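 The binding signal is a Z-score computed within each array and averaged over linkers. Arrays of the same protein sequence at different concentrations or buffers were also averaged together. Data originate from 3228 arrays in the Consortium for Functional Glycomics database, kept only where the protein sequence was available.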"}, "[2]": {"target": "Gal(b1-4)GlcNAc(b1-2)[Gal(b1-4)GlcNAc(b1-4)]Man(a1-3)[Gal(b1-4)GlcNAc(b1-2)Man(a1-6)]Man(b1-4)GlcNAc(b1-4)GlcNAc", "procedure,_shortened": "as §1"}, "[3]": {"target": "Gal(b1-4)GlcNAc(b1-2)[Gal(b1-4)GlcNAc(b1-4)]Man(a1-3)[Gal(b1-4)GlcNAc(b1-2)[Gal(b1-4)GlcNAc(b1-6)]Man(a1-6)]Man(b1-4)GlcNAc(b1-4)GlcNAc", "procedure,_shortened": "as §1"}, "[4]": {"target": "Gal(b1-4)GlcNAc(b1-2)[Gal(b1-4)GlcNAc(b1-4)]Man(a1-3)[GlcNAc(b1-4)][Gal(b1-4)GlcNAc(b1-2)Man(a1-6)]Man(b1-4)GlcNAc(b1-4)GlcNAc", "procedure,_shortened": "as §1"}, "[5]": {"target": "Gal(b1-4)GlcNAc(b1-2)[Gal(b1-4)GlcNAc(b1-4)]Man(a1-3)[GlcNAc(b1-4)][Gal(b1-4)GlcNAc(b1-2)[Gal(b1-4)GlcNAc(b1-6)]Man(a1-6)]Man(b1-4)GlcNAc(b1-4)GlcNAc", "procedure,_shortened": "as §1"}, "[6]": {"target": "Gal(b1-4)GlcNAc(b1-2)[Gal(b1-4)GlcNAc(b1-6)]Man(a1-6)[Gal(b1-4)GlcNAc(b1-2)Man(a1-3)]Man(b1-4)GlcNAc(b1-4)GlcNAc", "procedure,_shortened": "as §1"}, "[7]": {"target": "Gal(b1-4)GlcNAc(b1-2)[Gal(b1-4)GlcNAc(b1-6)]Man(a1-6)[Gal(b1-4)GlcNAc(b1-2)Man(a1-3)]Man(b1-4)GlcNAc(b1-4)[Fuc(a1-6)]GlcNAc", "procedure,_shortened": "as §1"}, "[8]": {"target": "Gal(b1-4)GlcNAc(b1-2)[Gal(b1-4)GlcNAc(b1-6)]Man(a1-6)[GlcNAc(b1-4)][Gal(b1-4)GlcNAc(b1-2)Man(a1-3)]Man(b1-4)GlcNAc(b1-4)GlcNAc", "procedure,_shortened": "as §1"}, "[9]": {"target": "Gal(b1-4)GlcNAc(b1-2)[Gal(b1-4)GlcNAc(b1-6)]Man(a1-6)[GlcNAc(b1-4)][Gal(b1-4)GlcNAc(b1-2)[Gal(b1-4)GlcNAc(b1-4)]Man(a1-3)]Man(b1-4)GlcNAc(b1-4)[Fuc(a1-6)]GlcNAc", "procedure,_shortened": "as §1"}, "[10]": {"target": "Gal(b1-4)GlcNAc(b1-3)Gal(b1-3)GalNAc", "procedure,_shortened": "as §1"}, "[11]": {"target": "Gal(b1-4)GlcNAc(b1-3)Gal(b1-3)GlcNAc", "procedure,_shortened": "as §1"}, "[12]": {"target": "Gal(b1-4)GlcNAc(b1-3)Gal(b1-4)Glc", "procedure,_shortened": "as §1"}, "[13]": {"target": "Gal(b1-4)GlcNAc(b1-3)Gal(b1-4)GlcNAc", "procedure,_shortened": "as §1"}, "[14]": {"target": "Gal(b1-4)GlcNAc(b1-3)Gal(b1-4)GlcNAc(b1-2)Man(a1-3)[Gal(b1-4)GlcNAc(b1-3)Gal(b1-4)GlcNAc(b1-2)Man(a1-6)]Man(b1-4)GlcNAc(b1-4)GlcNAc", "procedure,_shortened": "as §1"}, "[15]": {"target": "Gal(b1-4)GlcNAc(b1-3)Gal(b1-4)GlcNAc(b1-2)Man(a1-3)[Gal(b1-4)GlcNAc(b1-3)Gal(b1-4)GlcNAc(b1-2)Man(a1-6)]Man(b1-4)GlcNAc(b1-4)[Fuc(a1-6)]GlcNAc", "procedure,_shortened": "as §1"}, "[16]": {"target": "Gal(b1-4)GlcNAc(b1-3)Gal(b1-4)GlcNAc(b1-2)[Gal(b1-4)GlcNAc(b1-3)Gal(b1-4)GlcNAc(b1-6)]Man(a1-6)[Gal(b1-4)GlcNAc(b1-3)Gal(b1-4)GlcNAc(b1-2)Man(a1-3)]Man(b1-4)GlcNAc(b1-4)GlcNAc", "procedure,_shortened": "as §1"}, "[17]": {"target": "Gal(b1-4)GlcNAc(b1-3)Gal(b1-4)GlcNAc(b1-2)[Gal(b1-4)GlcNAc(b1-3)Gal(b1-4)GlcNAc(b1-6)]Man(a1-6)[Gal(b1-4)GlcNAc(b1-3)Gal(b1-4)GlcNAc(b1-2)Man(a1-3)]Man(b1-4)GlcNAc(b1-4)[Fuc(a1-6)]GlcNAc", "procedure,_shortened": "as §1"}, "[18]": {"target": "Gal(b1-4)GlcNAc(b1-3)Gal(b1-4)GlcNAc(b1-3)Gal(b1-4)GlcNAc", "procedure,_shortened": "as §1"}}, "note": "Some of the results follow."}
{"binder": "SAOUHSC 00176 (Staphylococcus aureus) (protein) MSKILKCITLAVVMLLIVTACGPNRSKEDIDKALNKDNSKDKPNQLTMWVDGDKQMAFYKKITDQYTKKTGIKVKLVNIGQNDQLENISLDAPAGKGPDIFFLAHDNTGSAYLQGLAAEIKLSKDELKGFNKQALKAMNYDNKQLALPAIVETTALFYNKKLVKNAPQTLEEVEANAAKLTDSKKKQYGMLFDAKNFYFNYPFLFGNDDYIFKKNGSEYDIHQLGLNSKHVVKNAERLQKWYDKGYLPKAATHDVMIGLFKEGKVGQFVTGPWNINEYQETFGKDLGVTTLPTDGGKPMKPFLGVRGWYLSEYSKHKYWAKDLMLYITSKDTLQKYTDEMSEITGRVDVKSSNPNLKVFEKQARHAEPMPNIPEMRQVWEPMGNASIFISNGKNPKQALDEATNDITQNIKILHPSQNDKKGD", "values": [{"measurement": "glycan array binding signal (z-score)", "setting": "[1]", "result": -0.082}, {"measurement": "glycan array binding signal (z-score)", "setting": "[2]", "result": 0.035}, {"measurement": "glycan array binding signal (z-score)", "setting": "[3]", "result": -0.112}, {"measurement": "glycan array binding signal (z-score)", "setting": "[4]", "result": 0}, {"measurement": "glycan array binding signal (z-score)", "setting": "[5]", "result": -0.068}, {"measurement": "glycan array binding signal (z-score)", "setting": "[6]", "result": 0.092}, {"measurement": "glycan array binding signal (z-score)", "setting": "[7]", "result": -0.002}, {"measurement": "glycan array binding signal (z-score)", "setting": "[8]", "result": -0.156}, {"measurement": "glycan array binding signal (z-score)", "setting": "[9]", "result": -0.098}, {"measurement": "glycan array binding signal (z-score)", "setting": "[10]", "result": -0.068}, {"measurement": "glycan array binding signal (z-score)", "setting": "[11]", "result": -0.141}, {"measurement": "glycan array binding signal (z-score)", "setting": "[12]", "result": -0.125}, {"measurement": "glycan array binding signal (z-score)", "setting": "[13]", "result": -0.075}, {"measurement": "glycan array binding signal (z-score)", "setting": "[14]", "result": 0.017}, {"measurement": "glycan array binding signal (z-score)", "setting": "[15]", "result": 0.174}, {"measurement": "glycan array binding signal (z-score)", "setting": "[16]", "result": 0.619}, {"measurement": "glycan array binding signal (z-score)", "setting": "[17]", "result": -0.019}, {"measurement": "glycan array binding signal (z-score)", "setting": "[18]", "result": -0.089}]}
